{"source": "PubChem BioAssay AID686970", "about": "(National Center for Advancing Translational Sciences (NCATS), 2013)", "note": "Out of some 360,000 compounds screened, about 6,000 (1.7%) were called active. The inconclusive results got no clear call from the source; some entries with a clear call stand among them for comparison. Calls follow the shape of the dose curve; as a rule, active = well fitted cell-killing curve with a large enough effect; inconclusive = small, poorly fitted or top-dose-only effect, or effect the other way; inactive = flat fitted curve, though single readings scatter. Potencies of inconclusive entries are left out as doubtful fits. Potency is read from the fitted curve at half-maximal effect; tags tell the direction and shape of the fitted curve.", "data": [{"test": "qHTS for induction of synthetic lethality in tumor cells producing 2HG: qHTS for the HT-1080-NT fibrosarcoma cell line;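 also: NT is the 2HG producing partner of a matched IDH1 knockdown line; nearly all actives have a fitted effect of over 55% in size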;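 as to activity, negative = less viability: 0% = DMSO-treated cells and -100% = media-only wells without cells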", "details": "HT-1080-NT fibrosarcoma viability, CellTiter-Glo ATP luminescence, 48 h; activity, negative = less viability: at 46.1 µM (top of the series) unless noted", "outline": "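Compounds were tested in concentration-response format on HT-1080-NT cells for 48 hours at 37 degrees C. Cell viability came from CellTiter-Glo luminescence; curves were classified by r2, response magnitude and activity.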", "values": [{"smiles": "CCOC(=O)c1ccc(NC(=S)N(CCCN2CCCC2)Cc2ccco2)cc1", "Potency": "inconclusive [cytotoxic, single point]"}, {"smiles": "Cc1cccc(Oc2cc(NC(=O)c3ccccc3)cc([N+](=O)[O-])c2)c1", "activity, negative = less viability": "inconclusive: -41.1%"}, {"smiles": "Nc1nonc1-n1nnc(C(=O)N/N=C/c2ccc(O)cc2)c1COc1ccc(F)cc1", "Potency": "inconclusive [cytotoxic, single point]"}, {"smiles": "O=C(N/N=C/c1cc(Cl)ccc1O)c1ccncc1", "Potency": "active: 6.51 µM"}, {"smiles": "CCOC(=O)c1c(NC(=O)C2C3C=CC(C3)C2C(=O)O)sc2c1CCC(CC)C2", "note": "(stereo not drawn)", "Potency": "inconclusive [cytotoxic, single point]"}, {"smiles": "Cc1cccc(C(CC(=O)N2CCCCC2)c2ccccc2)c1O", "note": "(stereo not drawn)", "activity, negative = less viability": "inactive: 8.76%"}, {"smiles": "Cc1cc(-c2csc(Nc3ccccn3)n2)ccc1F", "Potency": "inconclusive [cytotoxic, partial curve]"}, {"smiles": "Cc1cc(N2CCN(Cc3cn(C)nc3-c3ccccc3F)CC2)cc(C)n1", "Potency": "inconclusive [cytotoxic, full curve]"}, {"smiles": "CCS(=O)(=O)c1ncc(Cl)c(C(=O)Nc2ccc(S(=O)(=O)N3CCCC(C)C3)cc2)n1", "note": "(stereo not drawn)", "Potency": "active: 2.59 µM"}, {"smiles": "CN(C)c1ccc(/C(=N\\O)C(F)(F)F)cc1", "Potency": "inconclusive [cytotoxic, single point]"}, {"smiles": "COc1cc(C(=O)Nc2ccc3c(c2)nc(C)n3C)cc(OC)c1OC", "Potency": "active: 6.51 µM"}, {"smiles": "COc1ccc2[nH]c3c(N4CCc5ccccc5C4)ncnc3c2c1", "Potency": "active: 2.31 µM"}, {"smiles": "O=C(Nc1ccc2c(c1)OCO2)c1cc(C2CCCCN2C(=O)OCCF)on1", "note": "(stereo not drawn)", "Potency": "inconclusive [rising, partial curve]"}, {"smiles": "COC(=O)[C@@]12C[C@@H](CC(=O)N3CCCCC3)C(=O)N(Cc3cccc4ccccc34)C1=CCC(C)(C)C2", "Potency": "inconclusive [cytotoxic, single point]"}, {"smiles": "CCOC(=O)c1nc(S(C)(=O)=O)ncc1Cl", "Potency": "active: 8.91 µM"}, {"smiles": "CCOc1ccc(-c2nonc2NC(=O)c2ccco2)cc1", "Potency": "inconclusive [rising, partial curve]"}, {"smiles": "Cc1c(C(=O)NCc2ccc(Cl)c(Cl)c2)sc(=O)n1Cc1ccccc1F", "Potency": "inconclusive [cytotoxic, single point]"}, {"smiles": "CN(C)CCCNCC(=O)c1c(-c2ccccc2)n(C)c2ccccc12", "Potency": "inconclusive [cytotoxic, single point]"}, {"smiles": "COc1ccc2c(c1)c(=Cc1ccc(N(C)C)cc1)c1cc(-c3ccccc3)[n+](C)n12", "Potency": "active: 13 µM"}, {"smiles": "O=C(CN1C(=O)S/C(=C\\c2ccc(O)cc2)C1=O)c1ccccc1", "Potency": "inconclusive [cytotoxic, partial curve]"}, {"smiles": "O=C(C[n+]1ccccc1)Nc1ccccc1Br", "Potency": "inconclusive [rising, single point]"}, {"smiles": "CCCCCCCCNc1ncnc2ccccc12", "Potency": "inconclusive [cytotoxic, partial curve, poor fit]"}, {"smiles": "CCCCc1ccc(S(=O)(=O)N2CCC3(CC2)OCCO3)cc1", "activity, negative = less viability": "inactive: -6.28%"}, {"smiles": "Cc1cc(Sc2ncnc(N)c2[N+](=O)[O-])ncn1", "Potency": "active: 13 µM"}, {"smiles": "NC(=O)[C@H]1CC2(CC(c3cccc(NC(=O)COc4ccc(Cl)cc4)c3)=NO2)CN1C(=O)C(c1ccccc1)c1ccccc1", "note": "(stereo partly drawn)", "Potency": "inconclusive [cytotoxic, single point]"}, {"smiles": "Cc1cc(Cl)ccc1N(CC(=O)NCc1ccccc1)S(C)(=O)=O", "activity, negative = less viability": "inactive: -3.04%"}, {"smiles": "COc1ccc(C(C#N)=C2C=CC(=NO)c3ccccc32)cc1", "Potency": "inconclusive [cytotoxic, full curve]"}, {"smiles": "CCOC(=O)c1cnc(-n2nc(C)cc2C)nc1NNc1ncc(-c2ccccc2)cn1", "Potency": "inconclusive [cytotoxic, single point]"}, {"smiles": "CCCS(=O)(=O)NC(=O)C1(C)CCN(C(=O)c2ccc(F)cc2Cl)C1", "note": "(stereo not drawn)", "Potency": "inconclusive [rising, single point]"}, {"smiles": "COc1ccc(-c2oc3cc(O)c(OC)c(O)c3c(=O)c2OC)cc1O", "Potency": "active: 0.411 µM"}, {"smiles": "O=c1[nH]c(SCc2ccc([N+](=O)[O-])cc2)nc2[nH]ncc12", "Potency": "inconclusive [cytotoxic, partial curve]"}, {"smiles": "O=C(Nc1cccc(S(=O)(=O)Nc2ccc(Cl)cc2)c1)c1cc2c(s1)CCCC2", "Potency": "active: 20.6 µM"}, {"smiles": "CCc1ccc(N(CC(=O)NC(C)C)C(=O)CCC(=O)Nc2nccs2)cc1", "activity, negative = less viability": "inactive: -1.07%"}, {"smiles": "CC(=O)Nc1ccc(NC(=O)c2ccc(COc3ccc(C)cc3)o2)cc1", "Potency": "inconclusive [cytotoxic, single point]"}, {"smiles": "COc1cc(CNc2ccc(N3CCN(C(C)=O)CC3)cc2)ccc1OCc1ccc(F)cc1", "Potency": "active: 23.1 µM"}, {"smiles": "O=C(COc1ccc(Cl)cc1Cl)NC(=O)N1CCOCC1", "activity, negative = less viability": "inactive: 12%"}, {"smiles": "COc1ccc(-c2cn(CCO)c(-c3ccncc3)n2)cc1", "Potency": "inconclusive [rising, partial curve]"}, {"smiles": "CCn1nc(C)c(/C=N/NC(=O)CSc2ccccn2)c1C", "activity, negative = less viability": "inactive: 11.3%"}, {"smiles": "O=C(c1cc(C2CCCCN2S(=O)(=O)Cc2ccccc2)on1)N1CCOCC1", "note": "(stereo not drawn)", "Potency": "inconclusive [rising, single point]"}, {"smiles": "COc1ccc(N2CCN(C(=O)C(=O)c3cc(OC)c(OC)c(OC)c3)CC2)cc1", "activity, negative = less viability": "inactive: 1.09%"}, {"smiles": "O=[N+]([O-])c1cc(Cl)c2cccnc2c1O", "Potency": "inconclusive [cytotoxic, single point]"}, {"smiles": "CCOC(=O)C1=C(C)N=c2s/c(=C\\c3ccncc3)c(=O)n2C1c1ccc2c(c1)OCO2", "note": "(stereo not drawn)", "Potency": "inconclusive [cytotoxic, single point]"}, {"smiles": "O=C(Nc1nnc(C(F)(F)F)s1)c1ccc(Br)s1", "Potency": "inconclusive [cytotoxic, partial curve]"}, {"smiles": "COc1ccc(C(=O)C2CCCN(Cc3cccn3-c3ccc(Cl)cn3)C2)c(OC)c1", "note": "(stereo not drawn)", "Potency": "active: 16.4 µM"}, {"smiles": "S=C(Nc1ccc2nsnc2c1)N1CCCCCC1", "activity, negative = less viability": "inactive: 5.3%"}, {"smiles": "CCOc1ccc(NC(=O)c2ccc(CN3CCc4ccccc4C3)cc2)cc1", "activity, negative = less viability": "inconclusive: -1.14% [cytotoxic]"}, {"smiles": "CCOC(=O)c1c(C)oc2c(F)c(F)c(F)c(F)c2c1=O", "Potency": "inconclusive [cytotoxic, single point]"}, {"smiles": "CCCCCCCCCCCCC/C=C/[C@@H](O)[C@@H](N)CO", "Potency": "inconclusive [cytotoxic, single point]"}, {"smiles": "CC(=O)N1CC(C)c2scc(C)[n+]2-c2ccccc21", "note": "(stereo not drawn)", "Potency": "inconclusive [rising, partial curve]"}, {"smiles": "Cn1cnc([N+](=O)[O-])c1S(=O)(=O)Oc1ccccc1", "Potency": "inconclusive [cytotoxic, single point]"}, {"smiles": "Cc1ccc2nc(SCC(=O)Nc3cccc(S(=O)(=O)NC4=NCCCCC4)c3)[nH]c2c1", "Potency": "inconclusive [cytotoxic, single point]"}, {"smiles": "COCCNc1nc2c(-c3cccc(C(F)(F)F)c3)nnn2c2ccccc12", "activity, negative = less viability": "inactive: 14.8%"}, {"smiles": "CCN=C1NN=C(c2cc(C)n(Cc3ccco3)c2C)CS1", "activity, negative = less viability": "inactive: -5.63%"}, {"smiles": "O=C(CC(=O)NCc1ccc(Cl)cc1)NCc1ccccc1", "activity, negative = less viability": "inactive: -1.81%"}, {"smiles": "CCN(CC)CCCN1CC(O)=C(c2nc3ccccc3s2)C1=N", "Potency": "inconclusive [cytotoxic, single point]"}, {"smiles": "COc1cc(/C=C/c2ccc3c(Br)cc(Br)c(O)c3n2)ccc1O", "Potency": "inconclusive [cytotoxic, partial curve]"}, {"smiles": "O=C(CSc1nnc(-c2cccnc2)o1)Nc1cccc(Cl)c1", "Potency": "inconclusive [rising, partial curve, poor fit]"}, {"smiles": "Cc1ccc(-c2cc(Cc3cccs3)c(=O)[nH]n2)cc1", "activity, negative = less viability": "inconclusive: -3.88%"}, {"smiles": "CN(Cc1cn(C)nc1-c1ccc(Oc2ccccc2)cc1)Cc1cnc2ccccn12", "Potency": "active: 29.1 µM"}, {"smiles": "COc1ccc(OC)c(Nc2cc(-c3ccccc3)nc(N)n2)c1", "Potency": "active: 1.46 µM"}, {"smiles": "Cc1cccc(NC(=O)CSc2cc(C)c(C#N)c3nc4ccccc4n23)c1", "Potency": "inconclusive [cytotoxic, single point]"}, {"smiles": "O=C(CSc1nnc(COc2ccccc2)n1Cc1ccco1)NCc1ccco1", "activity, negative = less viability": "inactive: 17.8%"}, {"smiles": "CCN(CC)c1ccc2ccc(=O)oc2c1", "activity, negative = less viability": "inactive: 0.358%"}, {"smiles": "CC(C)N(Cc1nccn1C)C(=O)c1cc(COc2ccc3ncccc3c2)on1", "Potency": "inconclusive [cytotoxic, single point]"}, {"smiles": "CCOc1ccc(CN(C)C(=O)CN2C(=O)NC(c3ccccc3)(c3ccccc3)C2=O)cc1", "Potency": "inconclusive [cytotoxic, single point]"}, {"smiles": "Cc1ccc(CC2(C)C(=O)Nc3c(Cl)ccc(Cl)c32)cc1", "note": "(stereo not drawn)", "Potency": "inconclusive [cytotoxic, single point]"}, {"smiles": "CN1CCN(CCCNC(=O)c2cc3c(=O)n(C)c4ccccc4c3s2)CC1", "Potency": "inconclusive [cytotoxic, single point]"}, {"smiles": "CCCCNc1nc(-c2ccccc2)c(C(=O)OCC)cc1C#N", "Potency": "inconclusive [cytotoxic, single point]"}, {"smiles": "CC(=O)CCc1c(C)c2cccc(C)c2[nH]c1=O", "activity, negative = less viability": "inconclusive: -25.7% [cytotoxic]"}, {"smiles": "CCc1nnc(NC(=O)c2ccc(S(=O)(=O)N(CC(C)C)CC(C)C)cc2)o1", "activity, negative = less viability": "inconclusive: -34.3% [cytotoxic]"}, {"smiles": "O=C(CN1CCN(S(=O)(=O)c2ccc(F)cc2)CC1)NCC1(N2CCOCC2)CCCCC1", "activity, negative = less viability": "inactive: 16.8%"}, {"smiles": "CCN(CC)S(=O)(=O)c1ccc(N2CCN(C)CC2)c(NC(=O)Nc2ccc(C)cc2)c1", "Potency": "active: 8.2 µM"}, {"smiles": "O=C(CN1C(=O)S/C(=C\\c2ccc(C(=O)O)cc2)C1=O)Nc1ccccc1", "activity, negative = less viability": "inactive: -3.35%"}]}]}
